# Assay results published in the BET-seq Pho4 binding data (Le et al. 2018).
# Some of the results follow. The energies were worked out here from pooled read counts, against the library average; single values are noisy.
# Molecular target: T1, Pho4 (S. cerevisiae) (UniProt P07270)
# T1 sequence: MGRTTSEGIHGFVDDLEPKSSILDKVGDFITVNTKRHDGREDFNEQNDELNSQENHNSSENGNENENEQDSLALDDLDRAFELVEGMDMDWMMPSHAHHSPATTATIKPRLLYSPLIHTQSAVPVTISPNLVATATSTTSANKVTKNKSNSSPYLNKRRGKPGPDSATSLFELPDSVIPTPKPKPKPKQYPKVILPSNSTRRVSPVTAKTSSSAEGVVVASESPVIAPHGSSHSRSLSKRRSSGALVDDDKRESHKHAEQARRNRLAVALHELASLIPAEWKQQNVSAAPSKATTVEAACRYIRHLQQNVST
# Test: relative binding free energy (BET-seq); higher = weaker binding
# Conditions: reference: library average
row,Sequence,relative binding free energy
1,GGATGCACGTGGAAAT,0.12 kcal/mol
2,TGTAGCACGTGATGTA,0.05 kcal/mol
3,AGGATCACGTGGTAGA,0.18 kcal/mol
4,ACTTGCACGTGTAGTG,0 kcal/mol
5,GTTAGCACGTGTCCTG,0.03 kcal/mol
6,GTTGACACGTGGTGGT,0.05 kcal/mol
7,TTGGTCACGTGTATTT,0.11 kcal/mol
8,TCGGACACGTGTTTGG,-0.04 kcal/mol
9,TTTTGCACGTGCTGAT,-0.12 kcal/mol
10,TATGACACGTGTCATG,0.02 kcal/mol
11,TTTTACACGTGAGGTA,0.26 kcal/mol
12,GAGGCCACGTGTAGGT,0.06 kcal/mol
13,AACAGCACGTGGTTAG,-0.1 kcal/mol
14,GGAGGCACGTGATTAG,0.05 kcal/mol
15,TGGTTCACGTGGAATT,0.56 kcal/mol
16,GGGAACACGTGGCGGC,0.03 kcal/mol
17,AAAGTCACGTGACGGT,0.2 kcal/mol
18,GTTATCACGTGTAGAA,0.29 kcal/mol
19,TTAGTCACGTGCTGAA,0.11 kcal/mol
20,TTTGACACGTGCTAGT,-0.09 kcal/mol
21,ATACTCACGTGAGGTG,0.28 kcal/mol
22,AGTGTCACGTGCGTAT,0.02 kcal/mol
23,TTTTACACGTGTCGAT,0.1 kcal/mol
24,TTGGCCACGTGTCTGT,-0.11 kcal/mol
25,GGTAACACGTGGTGGG,0.06 kcal/mol

row,Sequence,relative binding free energy
1,ATGATCACGTGCTAGG,0.1 kcal/mol
2,TGTGTCACGTGCGGGC,0.05 kcal/mol
3,TCCATCACGTGTGGTG,0.28 kcal/mol
4,TGTATCACGTGGGTGT,-0.01 kcal/mol
5,TGGTGCACGTGTAGAC,0.07 kcal/mol
6,TTTGTCACGTGCTGGT,0 kcal/mol
7,TGGTGCACGTGCCTGG,-0.06 kcal/mol
8,TTTTGCACGTGGGTCG,-0.08 kcal/mol
9,GTCAGCACGTGGTGTA,-0.04 kcal/mol
10,ACTTGCACGTGTATGT,0.08 kcal/mol
11,TGTCGCACGTGGTTCT,-0.09 kcal/mol
12,TGCGGCACGTGGTGGG,-0.17 kcal/mol
13,AGGTTCACGTGCGTGG,0.23 kcal/mol
14,TGTCGCACGTGGATGA,-0.04 kcal/mol
15,ATGAACACGTGTAGTA,0.11 kcal/mol
16,TGTGACACGTGGTGAC,0.09 kcal/mol
17,TATTGCACGTGTTGCT,-0.02 kcal/mol
18,AGGGGCACGTGCGTCT,-0.25 kcal/mol
19,TGGCCCACGTGTGGTT,0.01 kcal/mol
20,AGAAGCACGTGGGGCC,-0.08 kcal/mol
21,GGTCGCACGTGTGATA,0.13 kcal/mol
22,GGATGCACGTGTAGTC,0.09 kcal/mol
23,TCATGCACGTGTTTTG,0.03 kcal/mol
24,GGTTTCACGTGGATCT,0.21 kcal/mol
25,GTGTACACGTGTAGGA,0.16 kcal/mol

row,Sequence,relative binding free energy
1,GGTTACACGTGTTAGC,0.24 kcal/mol
2,GTAAGCACGTGGAGCG,-0.08 kcal/mol
3,ATGGTCACGTGATATA,0.13 kcal/mol
4,TCGATCACGTGTGGTA,0.13 kcal/mol
5,AGGGCCACGTGTGGCT,-0.03 kcal/mol
6,TGGGCCACGTGTACTG,0 kcal/mol
7,GGTGTCACGTGCGTGT,0.01 kcal/mol
8,GTGCACACGTGATTTT,0.26 kcal/mol
9,GATAACACGTGTTATT,-0.01 kcal/mol
10,TTTTACACGTGGCATG,0.05 kcal/mol
11,CGTGTCACGTGACGTG,0.06 kcal/mol
12,GCCGGCACGTGGTGCG,-0.12 kcal/mol
13,TTTAACACGTGTGGTG,0.05 kcal/mol
14,AGAAGCACGTGGGGGT,-0.21 kcal/mol
15,TTGGTCACGTGATGCA,0.12 kcal/mol
16,CAAGTCACGTGAGTAG,0.32 kcal/mol
17,CATGGCACGTGGATAG,0.11 kcal/mol
18,GGGACCACGTGTTGTT,0.05 kcal/mol
19,TTTGACACGTGTGAGC,0.09 kcal/mol
20,ATGTTCACGTGGTAAG,0.25 kcal/mol
21,TTATACACGTGTATGC,0.03 kcal/mol
22,TCTTTCACGTGTATGT,0.21 kcal/mol
23,TAGAGCACGTGTTTGG,-0.05 kcal/mol
24,GGTAGCACGTGTGAGA,-0.01 kcal/mol
25,GGGGACACGTGGATAT,0.04 kcal/mol

row,Sequence,relative binding free energy
1,AGTCTCACGTGATGTT,0.29 kcal/mol
2,TTGAACACGTGGTAGG,-0.04 kcal/mol
3,GAGTGCACGTGTGAGG,0.19 kcal/mol
4,ATGTGCACGTGTTCGG,0.02 kcal/mol
5,GTATCCACGTGTTGTT,0.13 kcal/mol
6,GGTTACACGTGGTCAG,0.13 kcal/mol
7,GTTGTCACGTGGTTGA,0.17 kcal/mol
8,TGAATCACGTGGAGGA,0.12 kcal/mol
9,GTGAACACGTGTGTTT,-0.02 kcal/mol
10,ACGGGCACGTGGAATG,-0.09 kcal/mol
11,ATCAGCACGTGGTTGA,-0.1 kcal/mol
12,GTTTCCACGTGATGGG,0.28 kcal/mol
13,TTTATCACGTGAGCTT,0.31 kcal/mol
14,GCAGGCACGTGTGGTT,0.01 kcal/mol
15,AGATGCACGTGGATGG,-0.03 kcal/mol
16,TTTTGCACGTGTTTTG,0.13 kcal/mol
17,ATATGCACGTGATTTT,0.09 kcal/mol
18,TTTTTCACGTGGTCGC,0.3 kcal/mol
19,ATTGACACGTGACGGG,0.13 kcal/mol
20,CAAGTCACGTGTGGTG,0.05 kcal/mol
21,CGGTGCACGTGCGGGT,-0.13 kcal/mol
22,TGGCTCACGTGATTGG,0.26 kcal/mol
23,GATTACACGTGGGCGT,-0.01 kcal/mol
24,CATGGCACGTGGTGTG,-0.17 kcal/mol
25,ATGGACACGTGCATGG,-0.03 kcal/mol

row,Sequence,relative binding free energy
1,GGGTGCACGTGGGCTA,-0.16 kcal/mol
2,TTTTTCACGTGTCGAA,0.17 kcal/mol
3,TCAAGCACGTGAGAGG,0.2 kcal/mol
4,AGAGTCACGTGGTCTT,0.1 kcal/mol
5,CGGATCACGTGGTTCG,0.26 kcal/mol
6,TTCTTCACGTGTGGGA,0.26 kcal/mol
7,TGGATCACGTGGTCGT,0.13 kcal/mol
8,AGTGACACGTGTGGTC,0.03 kcal/mol
9,AAGGGCACGTGGGCGA,-0.29 kcal/mol
10,TGCGTCACGTGTGGAA,0.1 kcal/mol
11,CATTTCACGTGGTCGG,0.18 kcal/mol
12,GGGAACACGTGTATGT,0.09 kcal/mol
13,GTGGGCACGTGCAGGG,-0.01 kcal/mol
14,GGATTCACGTGTATGA,0.4 kcal/mol
15,AGGGGCACGTGCACGG,-0.15 kcal/mol
16,TTGTGCACGTGCATCG,0.04 kcal/mol
17,GGTTACACGTGAAAAT,0.51 kcal/mol
18,TGATGCACGTGTAGAA,0.18 kcal/mol
19,ATGTTCACGTGTTCGT,0.24 kcal/mol
20,AACGTCACGTGGAGGG,-0.05 kcal/mol
21,TCTGTCACGTGTAGGT,-0.01 kcal/mol
22,AGGTGCACGTGATGCA,0.02 kcal/mol
23,CGTGGCACGTGAGGAC,0.16 kcal/mol
24,TGCTGCACGTGGGTGC,-0.19 kcal/mol
25,GTAAACACGTGCTGGG,0.16 kcal/mol

row,Sequence,relative binding free energy
1,GTGGGCACGTGTGTCA,-0.02 kcal/mol
2,AGTGGCACGTGAGTAA,0.03 kcal/mol
3,GATGGCACGTGAAGGC,0.22 kcal/mol
4,ATTTGCACGTGTGGTT,0.11 kcal/mol
5,GTTAGCACGTGTATAA,-0.07 kcal/mol
6,GGCGGCACGTGGTGTC,0 kcal/mol
7,TGTACCACGTGATGGA,0.08 kcal/mol
8,AGATACACGTGGCTTG,-0.01 kcal/mol
9,CTTTACACGTGGTTTT,0.02 kcal/mol
10,GTGGTCACGTGCGTCT,-0.04 kcal/mol
11,GGTCACACGTGAGGAT,0.28 kcal/mol
12,GGGTACACGTGACGTT,0.29 kcal/mol
13,TTGCCCACGTGGGGGA,-0.33 kcal/mol
14,TGTTGCACGTGGGCAG,-0.27 kcal/mol
15,GTAGTCACGTGTTTAT,0.15 kcal/mol
16,TTGCACACGTGTTTGA,0.07 kcal/mol
17,TGGGACACGTGCGTTA,-0.14 kcal/mol
18,TATTGCACGTGGGCCG,-0.11 kcal/mol
19,GGACACACGTGGGGAG,-0.05 kcal/mol
20,TCTGGCACGTGCTGGG,0 kcal/mol
21,AGACGCACGTGGGGGG,-0.29 kcal/mol
